Here are results for 14 molecules from PMC5893904.

Protein sequences, listed by entry. Tags and fused reporters are not part of them.
UniProt O04090: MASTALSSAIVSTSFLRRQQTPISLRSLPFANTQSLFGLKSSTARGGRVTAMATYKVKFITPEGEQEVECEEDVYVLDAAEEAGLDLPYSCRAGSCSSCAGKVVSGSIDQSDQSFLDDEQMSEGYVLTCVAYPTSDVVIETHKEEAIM
UniProt P16972: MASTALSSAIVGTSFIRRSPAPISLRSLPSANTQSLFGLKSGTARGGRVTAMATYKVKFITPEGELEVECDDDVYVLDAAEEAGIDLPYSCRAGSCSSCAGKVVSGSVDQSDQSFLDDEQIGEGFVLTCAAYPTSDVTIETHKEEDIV
UniProt Q9S831: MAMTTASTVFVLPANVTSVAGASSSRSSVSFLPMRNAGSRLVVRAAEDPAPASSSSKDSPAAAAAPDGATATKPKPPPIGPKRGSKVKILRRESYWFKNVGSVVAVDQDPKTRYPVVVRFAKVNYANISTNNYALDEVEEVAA
UniProt Q9S714: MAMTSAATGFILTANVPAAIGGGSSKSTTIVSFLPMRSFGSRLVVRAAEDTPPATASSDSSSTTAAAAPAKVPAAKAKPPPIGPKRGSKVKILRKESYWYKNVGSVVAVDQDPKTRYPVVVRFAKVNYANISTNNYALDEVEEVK
UniProt Q9S7H1: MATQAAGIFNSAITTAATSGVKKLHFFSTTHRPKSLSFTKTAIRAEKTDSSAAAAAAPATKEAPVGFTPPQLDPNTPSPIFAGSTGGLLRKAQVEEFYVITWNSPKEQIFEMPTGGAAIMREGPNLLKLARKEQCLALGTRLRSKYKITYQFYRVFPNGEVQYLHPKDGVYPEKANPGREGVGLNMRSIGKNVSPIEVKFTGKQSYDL

Common to all, as to assay: two-hybrid; Clontech Matchmaker GAL4 system, gold yeast strain; Fds, FdC1 and FdC1NC fused with the binding domain (BD, bait), candidate proteins fused with the active-domain (AD, prey); growth on DDO, TDO and QDO dropout media, 28°C
In test [1] the target is AtFd1 (leaf-type ferredoxin 1), yeast two-hybrid bait fused with the binding domain (Arabidopsis thaliana) (UniProt O04090).
Test [2] concerns the target T1, AtFdC1 (ferredoxin C 1), yeast two-hybrid bait fused with the binding domain (Arabidopsis thaliana) (UniProt O23344).
T1 sequence: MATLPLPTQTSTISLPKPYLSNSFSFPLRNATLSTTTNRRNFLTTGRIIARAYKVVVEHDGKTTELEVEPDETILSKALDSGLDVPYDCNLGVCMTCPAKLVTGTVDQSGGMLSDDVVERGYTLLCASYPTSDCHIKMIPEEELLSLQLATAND

For test [3], the target named is AtFd2 (leaf-type ferredoxin 2), yeast two-hybrid bait fused with the binding domain (Arabidopsis thaliana) (UniProt P16972).
The target of test [4] is T2, FdC1NC, FdC1 with truncated C-terminus (1-145a.a.), yeast two-hybrid bait (Arabidopsis thaliana) (UniProt O23344).
T2 sequence: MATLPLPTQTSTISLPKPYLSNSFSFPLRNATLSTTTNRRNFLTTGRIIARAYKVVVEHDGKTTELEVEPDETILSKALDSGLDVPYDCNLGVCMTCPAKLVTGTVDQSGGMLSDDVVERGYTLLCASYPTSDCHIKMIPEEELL

Results are given in words; binding and its absence hold for the method and conditions named. Some binding calls cover weakened binding; strength is not graded here. For part of these data: Where a sequence is shown, tags or fusion partners need not be part of it.

On to “PsaE1 (subunit E1 of photosystem I), yeast two-hybrid prey fused with the active-domain (from UniProt Q9S831 1-143)”, for which the binding entry in test [1], in test [2], in test [3] and in test [4] was “binds” in each case.
For the molecule “PsaE2 (subunit E2 of photosystem I), yeast two-hybrid prey fused with the active-domain (from UniProt Q9S714 1-145)”, the binding result in test [1], in test [2], in test [3] and in test [4] was “binds” throughout.
As to “PsaD1 (subunit D1 of photosystem I), yeast two-hybrid prey fused with the active-domain (from UniProt Q9S7H1 1-208)”, the binding entry in test [1], in test [2], in test [3] and in test [4] was “binds” each time.

B1: SiR (sulfite reductase), yeast two-hybrid prey fused with the active-domain (enzyme, UniProt Q9LZ66 1-642)
chain: MSSTFRAPAGAATVFTADQKIRLGRLDALRSSHSVFLGRYGRGGVPVPPSASSSSSSPIQAVSTPAKPETATKRSKVEIIKEKSNFIRYPLNEELLTEAPNVNESAVQLIKFHGSYQQYNREERGGRSYSFMLRTKNPSGKVPNQLYLTMDDLADEFGIGTLRLTTRQTFQLHGVLKQNLKTVMSSIIKNMGSTLGACGDLNRNVLAPAAPYVKKDYLFAQETADNIAALLSPQSGFYYDMWVDGEQFMTAEPPEVVKARNDNSHGTNFVDSPEPIYGTQFLPRKFKVAVTVPTDNSVDLLTNDIGVVVVSDENGEPQGFNIYVGGGMGRTHRMESTFARLAEPIGYVPKEDILYAVKAIVVTQREHGRRDDRKYSRMKYLISSWGIEKFRDVVEQYYGKKFEPSRELPEWEFKSYLGWHEQGDGAWFCGLHVDSGRVGGIMKKTLREVIEKYKIDVRITPNQNIVLCDIKTEWKRPITTVLAQAGLLQPEFVDPLNQTAMACPAFPLCPLAITEAERGIPSILKRVRAMFEKVGLDYDESVVIRVTGCPNGCARPYMAELGLVGDGPNSYQVWLGGTPNLTQIARSFMDKVKVHDLEKVCEPLFYHWKLERQTKESFGEYTTRMGFEKLKELIDTYKGVSQ
Turning to B1, the binding result in test [2] and in test [4] was “binds” in each case.

B2: LeafFNR2 (leaf-type ferredoxin-NADP+ oxidoreductase 2), yeast two-hybrid prey fused with the active-domain (enzyme, UniProt Q8W493 1-369)
chain: MATTMNAAVSLTSSNSSSFPATSCAIAPERIRFTKGAFYYKSNNVVTGKRVFSIKAQITTETDTPTPAKKVEKVSKKNEEGVIVNRYRPKEPYTGKCLLNTKITADDAPGETWHMVFSHQGEIPYREGQSVGVIADGIDKNGKPHKVRLYSIASSALGDLGNSETVSLCVKRLVYTNDQGETVKGVCSNFLCDLAPGSDVKLTGPVGKEMLMPKDPNATVIMLATGTGIAPFRSFLWKMFFEKHDDYKFNGLAWLFLGVPTTSSLLYQEEFDKMKAKAPENFRVDYAISREQANDKGEKMYIQTRMAQYAAELWELLKKDNTFVYMCGLKGMEKGIDDIMVSLAANDGIDWFDYKKQLKKAEQWNVEVY
In the case of B2, the binding entry in test [2] is “no binding”.

B3: RootFNR2 (root-type ferredoxin-NADP+ oxidoreductase 2), yeast two-hybrid prey fused with the active-domain (enzyme, UniProt Q9S9P8 1-382)
chain: MSHSAVSQAGAVSVSIENQRSLRRSVFKQNNSISFNSKSWSSSLALNQKTTSIRDGKRYPSTTICMSVQQTSSSKVTVSPIELEDPKDPPLNLYKPKESYTAKIVSVERVVGPKAPGETCHIVIDHDGNLPYWEGQSYGVIPPGENPKKPGAPHNVRLYSIASTRYGDFFDGKTASLCVRRAVYYDPETGKEDPSKNGVCSNFLCDSKPGDKIQITGPSGKVMLLPESDPNATHIMIATGTGVAPYRGYLRRMFMENVPNKTFSGLAWLFLGVANTDSLLYDEEFTKYLKDHPDNFRFDKALSREEKNKKGGKMYVQDKIEEYSDEIFKLLDNGAHIYFCGLKGMMPGIQDTLKRVAEERGESWDLKLSQLRKNKQWHVEVY
In the case of B3, the binding entry in test [2] is “no binding”.

B4: FTRB (ferredoxin-thioredoxin reductase catalytic chain B), yeast two-hybrid prey fused with the active-domain (protein, UniProt Q9SJ89 1-146)
chain: MNLQAVSCSFGFLSSPLGVTPRTSFRRFVIRAKTEPSEKSVEIMRKFSEQYARRSGTYFCVDKGVTSVVIKGLAEHKDSYGAPLCPCRHYDDKAAEVGQGFWNCPCVPMRERKECHCMLFLTPDNDFAGKDQTITSDEIKETTANM
Regarding B4, the binding entry in test [2] and in test [4] was “binds” throughout.

B5: PGR5, yeast two-hybrid prey fused with the active-domain (protein, UniProt Q9SL05 1-133)
chain: MAAASISAIGCNQTLIGTSFYGGWGSSISGEDYQTMLSKTVAPPQQARVSRKAIRAVPMMKNVNEGKGLFAPLVVVTRNLVGKKRFNQLRGKAIALHSQVITEFCKSIGADAKQRQGLIRLAKKNGERLGFLA
In the case of B5, the binding result in test [2] is reported as “binds”; in test [4], “no binding”.

B6: PGRL1B (PGR5-like protein B), yeast two-hybrid prey fused with the active-domain (protein, UniProt Q8GYC7 1-313)
chain: MAFTLTIPRFSAISRKPITCSSSRTQCPAPFTHGRSISLRRRLTLLPLKASTDQSGQVGGEEVDSKILPYCSINKNEKRTIGEMEQEFLQAMQSFYYEGKAIMSNEEFDNLKEELMWEGSSVVMLSSDEQRFLEASMAYVSGNPILSDEEYDKLKMKLKMDGSEIVCEGPRCSLRSKKVYSDLAIDYFKMFLLNVPATVVALGLFFFLDDITGFEITYLLELPEPFSFIFTWFAAVPAIVYLALSLTKLILKDFLILKGPCPNCGTENVSFFGTILSIPNDSNTNNVKCSGCGTEMVYDSGSRLITLPEGGKA
As to B6, the figures for the binding result in test [2] and in test [4] were “binds” and “no binding”, respectively.

B7: NdhS (NADH dehydrogenase-like complex S), yeast two-hybrid prey fused with the active-domain (protein, UniProt Q9T0A4 1-250)
chain: MATSSITIPTIRTPIHRSKFLGQTHQFSTVNRSVFPPPKQQSKLYQVKAMGKFNLWEVMGGRGLCNGEKGIEKELQRNIEDEQETSKAENNETERESDDSNLSFKVPEDGFEKEMMGLTGGFPGGEKGLKTFIEKNPPPPPPPPPAKQGSDASAVATDKKPKAPKLPLLMPGMIAIVKNQNSPYHMYCGIVQRITDGKAGVLFEGGNWDRLITFRLEELERREKGPPGKNPKSCILEPLIEQMQKEEAAP
On to B7, for which the values for the binding entry in test [2] and in test [4] were “binds” and “no binding”, respectively.

B8: FTRA2 (ferredoxin-thioredoxin reductase A2), yeast two-hybrid prey fused with the active-domain (protein, UniProt Q8LBP6 1-184)
chain: MTNSYALSPAIIAAVRPPASQDYLVAASLSGRKSINSSSSSIFVPISLSTSYGRSKCAFSISRKNPKSTIRCDIAVKSAASVDADADLSSSTSLETEEDEKAKEKIGARVRVTVPLKVYHVVRVPEVELMGMEGFIKDYVVLWKGKKISANLPFKVQFVKEIEGRGPVKFFTHLKEDEFELIDP
Turning to B8, the binding entry in test [2] and in test [4] was “binds” in each case.

B9: NiR (nitrite reductase), yeast two-hybrid prey fused with the active-domain (enzyme, UniProt Q39161 1-586)
chain: MTSFSLTFTSPLLPSSSTKPKRSVLVAAAQTTAPAESTASVDADRLEPRVELKDGFFILKEKFRKGINPQEKVKIEREPMKLFMENGIEELAKKSMEELDSEKSSKDDIDVRLKWLGLFHRRKHQYGKFMMRLKLPNGVTTSAQTRYLASVIRKYGEDGCADVTTRQNWQIRGVVLPDVPEILKGLASVGLTSLQSGMDNVRNPVGNPIAGIDPEEIVDTRPYTNLLSQFITANSQGNPDFTNLPRKWNVCVVGTHDLYEHPHINDLAYMPANKDGRFGFNLLVGGFFSPKRCEEAIPLDAWVPADDVLPLCKAVLEAYRDLGTRGNRQKTRMMWLIDELGVEGFRTEVEKRMPNGKLERGSSEDLVNKQWERRDYFGVNPQKQEGLSFVGLHVPVGRLQADDMDELARLADTYGSGELRLTVEQNIIIPNVETSKTEALLQEPFLKNRFSPEPSILMKGLVACTGSQFCGQAIIETKLRALKVTEEVERLVSVPRPIRMHWTGCPNTCGQVQVADIGFMGCLTRGEEGKPVEGADVYVGGRIGSDSHIGEIYKKGVRVTELVPLVAEILIKEFGAVPREREENED
For B9, the binding result in test [2] and in test [4] was “binds” in each case.

B10: LeafFNR1 (leaf-type ferredoxin-NADP+ oxidoreductase 1), yeast two-hybrid prey fused with the active-domain (enzyme, UniProt Q9FKW6 1-360)
chain: MAAAISAAVSLPSSKSSSLLTKISSVSPQRIFLKKSTVCYRRVVSVKAQVTTDTTEAPPVKVVKESKKQEEGIVVNKFKPKNPYTGRCLLNTKITGDDAPGETWHIVFTTEGEVPYREGQSIGVIPEGIDKNGKPHKLRLYSIASSAIGDFGDSKTVSLCVKRLVYTNDGGEIVKGVCSNFLCDLKPGDEAKITGPVGKEMLMPKDPNATIIMLGTGTGIAPFRSFLWKMFFEEHEDYKFNGLAWLFLGVPTSSSLLYKEEFEKMKEKNPDNFRLDFAVSREQTNEKGEKMYIQTRMAEYAEELWELLKKDNTFVYMCGLKGMEKGIDDIMVSLAAKDGIDWLEYKKQLKRSEQWNVEVY
In the case of B10, in test [2], the binding entry is on record as “no binding”.

B11: RootFNR1 (root-type ferredoxin-NADP+ oxidoreductase 1), yeast two-hybrid prey fused with the active-domain (enzyme, UniProt Q9M0V6 1-378)
chain: MALSTTPSQMSVALPTRIDGSSRSMIKVQSISFTDKSWGPPLLRLDSKSRSLGVKKRSTICMSLQQSSKSKVLVTPLELEDPKETPLNLFRPKEPYTATIVSVERIVGPQAPGETCHIVIDHDGNVPYWEGQSYGVIPPGENPKKPGAPHNVRLYSIASTRYGDSFDGKTASLCVRRAIYYDPETGKEDPSKAGVCSNFLCNAKPGDKVKITGPSGKVMLLPEDDPKATHIMIATGTGVAPYRGYLRRMFMENVPNFKFDGLAWLFLGVANSDSLLYDEEFAGYRKDYPENFRYDKALSREEKNKKGGKMYVQDKIEEYSDEIFKLLDNGAHIYFCGLKGMMPGIQDTLKRVAEERGESWEQKLTQLRKNKQWHVEVY
Turning to B11, the binding entry in test [2] is on record as “no binding”.
